Results reported in PubChem BioAssay AID1963576 (National Center for Advancing Translational Sciences (NCATS), 2024).
Out of some 46,000 compounds screened, about 60 (0.1%) were called active. About 3% were inconclusive and are not listed. Calls follow the shape of the dose curve; as a rule, active = well fitted inhibition curve with a large enough effect; inconclusive = small, poorly fitted or top-dose-only effect; inactive = no such curve, though single readings can be large or run the other way. The list shows a part of the results.

experiment: Primary qHTS assay for Inhibitors of ovarian cancer metastasis using an organotypic tumor microenvironment (TME) model.; also: nearly all actives have a fitted effect of over 65% in size;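 as to activity change, negative = inhibition: plate controls were DMSO wells for no effect and tomatine positive control wells for full effect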; settings: SKOV3ip1-GFP adhesion/invasion on 3D omental model, fluorescence; series mostly up to 45.8 µM; activity change, negative = inhibition: at the top concentration
Summary of the method: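 A 3D layer of primary human omental fibroblasts, mesothelial cells, fibronectin and collagen I, grown 48 hr, received SKOV3ip1-GFP cells in serum-free medium plus compounds at 0.36-46 umol/L. After 2 hr RT and 16 hr 37 C, fixed adherent GFP cells were counted; normalized to DMSO and tomatine.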

outcome, inactive:
CC(Oc1ccccc1)C(=O)Nc1c(C(=O)Nc2cccc(F)c2)oc2ccccc12 (stereo not given)
CCN(CC)S(=O)(=O)c1ccc(NC(=O)c2c(C)oc3ncnc(N4CCCCC4)c23)cc1
O=c1c2oc3ccccc3c2n(Cc2ccccc2F)c(=O)n1Cc1ccc2c(c1)OCO2
COc1ccccc1NC(=O)N1CCN(c2nnc(C)c3c(C)n(-c4ccccc4)nc23)CC1
Cc1ccc(NC(=O)Cn2nc(C)c3nn(-c4ccc(Cl)cc4)c(C)c3c2=O)cc1F
CCc1ccccc1NC(=O)C1CCCN(S(=O)(=O)c2ccc3[nH]c(=O)ccc3c2)C1 (stereo not given)
CC(=O)c1ccc(NC(=O)C2CCN(S(=O)(=O)c3c(C)noc3/C=C/c3ccc(C)cc3)CC2)cc1
O=C1CCc2cc(S(=O)(=O)NCc3ccccc3)cc3c2N1CC3
COc1ccc(CCNC(=O)c2cc(Nc3ccccc3)nc3ccccc23)cc1OC
COC(=O)c1ccccc1NC(=O)CCCn1c(C)c2cnn(-c3ccccc3)c(=O)c2c1C
O=C(Nc1ccc(S(=O)(=O)N(Cc2ccccc2)c2ccccc2)cc1)c1ccccc1F
CCN(CC)C(=O)C1=C(C)Nc2nc3ccccc3n2C1c1ccccc1F (stereo not given)

Activity change, negative = inhibition, inactive:
Cc1ccc(C)c(N2CCN(S(=O)(=O)c3cc(C(=O)Nc4ccccc4C(F)(F)F)ccc3F)CC2)c1 7.21%
Nc1c(-c2nc(-c3ccccc3Cl)no2)nnn1-c1ccccc1C(F)(F)F -10%
CC1=C(c2ccc(C)c(C)c2)S(=O)(=O)N=C1N1CCC(C(=O)NCc2ccc(N(C)C)cc2)CC1 -6.37%
Cc1ccc(-c2nnc(SCC(=O)NCc3ccccc3)o2)cc1 -15.9%
CCN(CC)CCN(C(=O)c1ccco1)c1nc2ccc(F)cc2s1 5.78%
COc1ccc(CNC(=O)c2cnn(-c3ccccc3)c2-n2cccc2)cc1OC 1.51%
COc1ccc(N2CCN(C(=O)CSc3nc(-c4ccccc4)no3)CC2)cc1 2.87%
O=C(NCc1ccccc1)c1ccc(CS(=O)(=O)c2c(Cl)cccc2Cl)o1 -3.72%
CCOc1ccc(CNS(=O)(=O)c2ccc3c(c2)CC(C)N3C(C)=O)cc1OC (stereo not given) 1.47%
COc1ccc(OC)c(CCNC(=O)CCCn2c(=O)c3cccn3c3cccnc32)c1 -3.9%
COc1ccc(-n2nc3c(N4CCC(C(=O)NC5CCCCC5)CC4)nnc(C)c3c2C)cc1 -12.2%
COc1ccc(-c2n[nH]c3c2C(c2ccccn2)N(C)C3=O)cc1 (stereo not given) -11.5%
Cc1c(CN2CCN(C(=O)C(C)C)CC2)sc2c(N3CCOCC3)nc(-c3cnc(N)nc3)nc12 19.1%
COc1cc(CNC(=O)c2ccc(NC(=O)N3CCCCc4ccccc43)cc2)cc(OC)c1OC 3.82%
Cc1cc(C(=O)NCCc2ccc(Cl)cc2)c2c(C)nn(-c3ccccc3)c2n1 -3.35%
Cc1cccc(C(=O)Nc2ccc3nc(SCC(=O)N4CCCC4)sc3c2)c1 -6.62%
O=C(CSc1nc(=O)[nH]c2c1CCC2)Nc1cc(C(F)(F)F)ccc1Cl -5.95%
Cc1ccc2oc(=O)c3cnn(CC(=O)N4CCN(c5cccc(Cl)c5)CC4)c3c2c1 5.27%
CCOC(=O)c1[nH]c(C)c(CCC(=O)N2CCN(c3cc(C)ccc3C)CC2)c1C -3.93%
CCOc1ccc(OCC)c(NC(=O)CN(C)S(=O)(=O)c2ccc3[nH]c(=O)oc3c2)c1 5.68%
O=C(NCCc1ccc(Cl)cc1)c1cnc2sc(N3CCCC3)nn2c1=O 1.26%
O=C(c1cccs1)N1CCCc2cc(NS(=O)(=O)c3cc(F)ccc3F)ccc21 0.451%
Cc1ccc(OCC(=O)NCC(=O)OCc2cc(=O)n3nc(CC(C)C)sc3n2)cc1 21.3%
CC(=O)c1cccc(NC(=O)CCn2nc(C)c(S(=O)(=O)N3CCCCC3)c2C)c1 8.08%
COc1ccc(-c2nn3c(-c4ccccc4)nnc3c3ccccc23)cc1 -7.44%
Nc1nccc(Oc2ccc(NC(=O)c3c[nH]cc(-c4ccc(F)cc4)c3=O)cc2F)c1Cl -14.3%
Oc1ccccc1-c1nc2cnccn2c1Nc1ccc(Cl)cc1 -13.2%
Cc1ccc2nc(NC(=O)CSc3cc(C)[nH]c(=O)n3)sc2c1 6.46%
COc1ccc(CNC(=O)CN2C(=O)COc3ccccc32)c(OC)c1 -2.05%
CCOc1ccc(CNC(=O)CCCn2c(=O)c3cccn3c3cccnc32)cc1 6.84%
COc1cccc2c(NCc3ccccc3)nc(-n3c(N)nc4ccccc43)nc12 16.4%
CCOc1ccc(C(=O)N2CCc3cc(OC)c(OC)cc3C2COc2ccc3c(C)cc(=O)oc3c2)cc1OCC (stereo not given) -1.89%
CCn1c(C(=O)Nc2ccccc2C(=O)OC)cc2sc(Cl)cc21 -4.42%
COC(=O)c1c(NC(=O)CCCOc2ccc(C)cc2)sc2c1CCCC2 1.91%
COc1cc(NC(=O)CCNC(=O)Cn2ccc3ccccc3c2=O)cc(OC)c1OC -1.18%
CCCOc1ccc(OC(=O)c2ccc(-c3ccc(CCC)cn3)cc2)cc1 -7.56%
Cc1ccccc1Cn1c(SCc2ccc(C(=O)N3CCCCC3)cc2)nc2ccncc21 3.73%
O=S(=O)(NCCc1csc(-c2cccc(F)c2)n1)c1cc(F)ccc1F -24%
O=C(CCCCn1c(=O)c2ccccc2n(Cc2ccc(F)cc2Cl)c1=O)NCCc1ccc(Cl)cc1 -17.7%
CCCn1ccc2c(OCC(=O)Nc3ccccc3C(=O)OCC)cccc2c1=O 1.27%
Cc1ccc(NC(=O)Cn2c(=O)n(Cc3ccc(F)cc3)c(=O)c3cccnc32)cc1C -9.55%
CCOC(=O)c1cc2c(=O)n3ccccc3nc2n(CCCOC)c1=NC(=O)c1c(-c2c(F)cccc2Cl)noc1C 2.51%
CCC(=O)N1CCc2cc(CNC(=O)Nc3cc(OC)c(OC)c(OC)c3)ccc21 3.62%
CCOC(=O)c1ccc(Nc2c(-c3ccc(OC)cc3)nc3nc[nH]n23)cc1 -4.33%
CCOc1ccc(CCNC(=O)C2Cc3ccccc3N2C(=O)CC)cc1 (stereo not given) 2.96%
CCOc1ccc(S(=O)(=O)Nc2ccc3c(c2)CCCN3C(=O)c2cccs2)cc1 -12%
Cc1ccccc1Cn1c(=O)n(Cc2ccco2)c(=O)c2sc3ccccc3c21 7.08%
COc1ccc(CNC(=O)CC(C)CC2=NS(=O)(=O)c3ccccc3N2)cc1 (stereo not given) -3.83%
